For 167 variants, self-cleavage results are on record in the RNAGym collection of RNA variant scans (doi:10.1093/nar/gkz1192).

Sequences and labels used below:
B1: CPEB3 Ribozyme (parent)
chain: UAACAGGGGGCCACAGCAGAAGCGUUCACGUCGCAGCCCCUGUCAGAUUCUGGUGAAUCUGCGAAUUCUGCUGUAUAUCUC

Read counts are not given, so values of variants with three or more changes are uncertain.

This series covers variants of B1. The series is described as follows: self-cleavage, relative activity (ratio to wild type); higher = more cleavage; in vitro, sequencing. Put shortly:
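For each CPEB3 ribozyme variant, relative activity is its cleaved/total read fraction divided by the unmutated ribozyme's. Barcoded error-prone PCR libraries were transcribed by T7 RNA polymerase (5 hours, 37°C) and held in DNase I for 15 min before an EDTA stop, with cleavage occurring throughout. Template-switching reverse transcription and Illumina sequencing were used to read the RNAs. A 5-read minimum applied, and results are the mean of three batches.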
For the variant A3G G52C U80A, the self-cleavage stood at 1.09.
The value for A3G G61A U67C U69C was 0.39.
Turning to A3G G24A U51A A57G U60A C62U, the self-cleavage was 0.05.
As for A3G U25C A45G U54C U72C U78A, the self-cleavage was found to be 0.07.
The value for A3G G19U A64U was 0.31; that for A3G U25A A28U U51A A57G was 0.08.
The value for A3G U25C U41A U67C was 0.03; that for A3G U25C A35G U60C U69C was 0.11; that for A3G U25C A35G A45G A56G was 0.4.
The value for A3G G24C A57G G63A U74C was 0.17; that for A3G G16U A28G C32U U43C U67C was 0.
Turning to A3G G36A U54C C68A, the self-cleavage was 0.17.
As to A3G G55U U72C, the self-cleavage was determined as 1.06.
The value for A3G G10A G19U A20G U43C was 0.08; that for A3G U25C U54G A56C U80A was 0.05.
The value for A3G U25A C40U was 0.12; that for A3G G33A U43C A75G was 0.18; that for A3G U25C U41A G53A U74C U80A was 0.29.
As to A3G U25C C71G U78A, the self-cleavage was found to be 0.24.
The value for A3G G33A U74C was 0.74; that for A3G G10A C40G U54C was 0.31; that for A3G U25A U54C was 0.15.
For A3G U25C A57G U67A, the self-cleavage amounted to 0.25.
Turning to A3G G16U A21G C38U A57G U60A G70A, the self-cleavage turned out to be 0.05.
The value for A3G G16C A21G was 0.51; that for A3G G42A U60C U80C was 0.13.
The value for A3G U25C U26A C39A U60C U66C G70A was 0.07; that for A3G U26A A57U was 0.33; that for A3G G46A U69G was 0.16.
The value for A3G G10A U43C U60C U66C was 0.18; that for A3G G16A G19U was 0.29; that for A3G G24A U26A C27U U60C was 0.13.
Take A3G G36U U51C U54C: the self-cleavage came to 0.28.
Turning to A3G U25A U66C, the self-cleavage turned out to be 0.1.
For A3G U25C U31A A56G U72C, the self-cleavage is 0.39.
The value for A3G G42A U43C C44U was 0.62; that for A3G G22U G61A C79A was 0.33.
The value for A3G G36U C44U U54C U60C was 0.09.
For A3G G22C A47U U72C, the self-cleavage was 0.22.
The value for A3G U25A U69A was 0.38; that for A3G U25A U31A was 0.54; that for A3G G22U U43A U76A was 0.27.
Consider A3G G30A U54G A65G A77G, for which the self-cleavage came to 0.04.
The value for A3G G16U A18U A65G was 0.07; that for A3G U25C A35G was 0.43.
The value for A3G G52C A56G U60C was 0.43; that for A3G U25C C50U A56G was 0.32; that for A3G U25G U26A was 0.76.
The value for A3G U25C U58A U60G A75U was 0.07.
A3G U25A U26C U31C G73A: the self-cleavage is 0.14.
The value for A3G G36U A45G U66C was 0.14; that for A3G G16A A57G A64U was 0.17; that for A3G G19A C34U U66A was 0.05.
Consider A3G G16U A28C A57G, for which the self-cleavage is 0.14.
The value for A3G G33U U41C A57G was 0.74; that for A3G G33A C34G U69A was 0.56; that for A3G G10C A18U A20G U43G A47G was 0.05.
The value for A3G G33U A35U A65G was 0.26.
Take A3G G10A U41C U43C U80A: the self-cleavage is 0.33.
Turning to A3G G10A U26C A57G, the self-cleavage worked out at 0.64.
The value for A3G U26A A35U was 0.48; that for A3G G10A U26C U67C U72A U76A was 0.02.
The value for A3G U25A C38A A56U was 0.18; that for A3G U25C C27U U31C A35G A47U was 0.17.
The value for A3G G24A U26A G63A U78C was 0.1; that for A3G U25A C68A was 0.44.
A3G U25C U60A: the self-cleavage worked out at 0.06.
The value for A3G G16A G33C U54C was 0.06.
The value for A3G G33U U54C U66A U69A was 0.16.
The value for A3G U25A U51A U72C was 0.08; that for A3G G10C A15U U48C was 0.35; that for A3G G22A A64U was 0.11.
Take A3G G24A A35G: the self-cleavage stood at 0.26.
The value for A3G G19C A75U was 0.61; that for A3G G16U A28G U49C was 0.07.
The value for A3G G24A U66C U67C was 0.13.
The value for A3G G10A U54C U80A was 0.08.
For A3G G19A U41C, the self-cleavage was determined as 0.32.
The value for A3G G19A U41A was 0.43; that for A3G G52U A75U was 1.07; that for A3G G10A G30A C32U A64G U74A was 0.3.
A3G G19U U49C G55A U78C: the self-cleavage turned out to be 0.24.
Consider A3G U25A A45U, for which the self-cleavage stood at 0.18.
The value for A3G U25A U60C A64G was 0.37; that for A3G U25G A35U U41A A65G U78A was 0.02.
On to A3G G16A C34G, for which the self-cleavage amounted to 0.1.
A3G G16U A28G U48C A64G: the self-cleavage stood at 0.03.
The value for A3G U25C U31C was 0.13.
The value for A3G U25C U31A was 0.57.
The value for A3G G46C A57U was 0.17; that for A3G G16U C62G A75U was 0.28.
In the case of A3G U25C U26C U54C U69C, the self-cleavage stood at 0.07.
The value for A3G G19A A35G U80C was 0.71; that for A3G U25C A47U A56G U72C was 0.31; that for A3G U25C U31A U51C A57G A75C was 0.13.
Take A3G G30A A35U: the self-cleavage was 0.09.
The value for A3G U25C U43C U49C U67A was 0.
On to A3G U26A A47C U60A, for which the self-cleavage came to 0.08.
The value for A3G U25C A35G G63A was 0.18; that for A3G G46U U80G was 0.37; that for A3G U26A A35U U43A U69C was 0.35.
The value for A3G G22C A47U was 0.38.
The value for A3G G22C A47G was 0.38; that for A3G U26A A56G U58C U69C was 0.23; that for A3G G36U A57G U72A was 0.2.
In the case of A3G G63A A64G A65G, the self-cleavage is 0.21.
The value for A3G G10C U31C A45G G61A A65G was 0.13; that for A3G U26A A28G U67C U69C was 0.2; that for A3G U25C U43A was 0.19.
Regarding A3G U25C C32A A45G A64U U78C, the self-cleavage turned out to be 0.16.
The value for A3G G33A G46U U69C U72C was 0.19; that for A3G U25C U43A A47G was 0.39; that for A3G U25A U80A was 0.13.
The value for A3G G19U A75U was 0.66; that for A3G G10C C27U A64U U66C was 0.35.
Regarding A3G G30U U31C, the self-cleavage was 0.47.
The value for A3G U25C G42A G73A was 0.73; that for A3G G10C A20G C39A G42A was 0.07; that for A3G U25C U31C U54C was 0.14.
As to A3G G30A C40A, the self-cleavage was 0.12.
A3G G19C G24A: the self-cleavage was 0.42.
The value for A3G G30A A35U U43C U48C U54A A57G was 0.19; that for A3G G16U A18G G24A G30A U41A U60C was 0.08.
The value for A3G G22A U58A U80A was 0.39; that for A3G G30A G36U C40U A57G U74A was 0.21; that for A3G U25C U58C was 0.13.
The value for A3G G30A U80C was 0.59; that for A3G G24A U69C U72C was 0.34.
Turning to A3G U25C U48C U49C G52A U54C C68U, the self-cleavage amounted to 0.05.
The value for A3G G10A C27U U60C was 0.22.
A3G U25C A35U A57G: the self-cleavage amounted to 0.4.
The value for A3G U25A U26C U31A U41A U76A was 0.12; that for A3G U25G A47U U80C was 0.1; that for A3G G52A U66C U72C was 0.51.
As for A3G G19A A28G U48C, the self-cleavage worked out at 0.3.
The value for A3G G24A U26C G70A was 0.23; that for A3G U25C U26C C44U U66A was 0.1; that for A3G U25C C39G A57G U60A U67C was 0.06.
The value for A3G G33A A47U A75C was 0.39; that for A3G U25C C38U U41C U54C U72C was 0.23.
The value for A3G U25C A47G U69C was 0.35.
A3G G16A U31A U58C U66G A75G: the self-cleavage amounted to 0.05.
The value for A3G G19A A35U U48C U51C U54C A64G was 0.27.
The value for A3G G36A U54C A56U G63A was 0.18; that for A3G U26A A45U G46A A56G A77U was 0.37; that for A3G G52A U60C was 0.34.
The value for A3G U26A A45U U49C U51G A57G U80C was 0.24; that for A3G G10C A45G G46U A56G U58C U60C was 0.14.
A3G U25C U41C: the self-cleavage came to 0.59.
The value for A3G G10U G36A U41C U69A A77C U80C was 0.04; that for A3G G30A U43C U48A was 0.05.
The value for A3G U25G U80C was 0.44.
The value for A3G U25C C50A was 0.44.
With A3G G30C A47C, the self-cleavage is 0.32.
As to A3G G19U U25C U60C G61A, the self-cleavage turned out to be 0.11.
The value for A3G U25C A28U A64U was 0.33; that for A3G U25C U31A U49C A56U A77U U78C was 0.26; that for A3G G19A A21G U26A U54C A75G was 0.14.
The value for A3G U25A A35G U41A C62U U72C was 0.08; that for A3G G46U A65G was 0.32.
With A3G G16C A75U, the self-cleavage was 0.12.
The value for A3G G10A C27U was 0.36; that for A3G G16C C40U was 0.53; that for A3G G10A U49C U54A U58G was 0.1.
The value for A3G U25G A45U was 0.35.
Take A3G U25C A47G A57G A64G: the self-cleavage was determined as 0.21.
The value for A3G G10A U48C U49C U72C was 0.07.
